{
  "source": "the supplement of paper PMC4466236",
  "note": "Over roughly 33,000 sequences, “E-score (dimensionless, -0.5 to 0.5)” has its median near -0.058; the highest 2% begin near 0.35. The list shows a part of the results.",
  "data": [
    {"tested_on": "MvaT", "assay": "PBM 8-mer E-score (mean of HK and ME arrays) (E-score (dimensionless, -0.5 to 0.5)); higher = stronger relative binding preference; most listed sequences are background and not binding sites", "outline": "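Full-length P. aeruginosa MvaT, with glutathione S-transferase fused to its N-terminus (cloned into pTH6838 by isothermal assembly), was tested by protein binding microarray using a previously described protocol. Two universal double-stranded 60-mer arrays (ME and HK) were used, each with a constant 25-mer primer region and a variable 35-mer region covering all 8-mers. The rank-based 8-mer E-score (-0.5 to 0.5) is the mean of the two arrays, parsed with a custom Python script.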", "values": [
      {"sequence": "TATCATAA", "PBM 8-mer E-score": 0.315},
      {"sequence": "AATGACGC", "PBM 8-mer E-score": -0.183},
      {"sequence": "GACGCGCA", "PBM 8-mer E-score": -0.188},
      {"sequence": "ACTATTTC", "PBM 8-mer E-score": 0.201},
      {"sequence": "ACCCCCCG", "PBM 8-mer E-score": -0.213},
      {"sequence": "GACTAGTA", "PBM 8-mer E-score": 0.0129},
      {"sequence": "ATTTATTA", "PBM 8-mer E-score": 0.434},
      {"sequence": "TTTGAAAA", "PBM 8-mer E-score": 0.213},
      {"sequence": "AATCAGAA", "PBM 8-mer E-score": 0.124},
      {"sequence": "ATCTCCAT", "PBM 8-mer E-score": 0.0219},
      {"sequence": "AATTTGAG", "PBM 8-mer E-score": 0.13},
      {"sequence": "GGACTGAC", "PBM 8-mer E-score": -0.303},
      {"sequence": "CACTGTCG", "PBM 8-mer E-score": -0.143},
      {"sequence": "GGCCAGCC", "PBM 8-mer E-score": -0.315},
      {"sequence": "ACAAGCTC", "PBM 8-mer E-score": -0.124},
      {"sequence": "CGAAGGAC", "PBM 8-mer E-score": -0.189},
      {"sequence": "TGGACAAA", "PBM 8-mer E-score": 0.0389},
      {"sequence": "CCGTTTCG", "PBM 8-mer E-score": -0.106},
      {"sequence": "ACAGTTCG", "PBM 8-mer E-score": 0.115},
      {"sequence": "AATTCGAC", "PBM 8-mer E-score": -0.053},
      {"sequence": "CGCACCGA", "PBM 8-mer E-score": 0.00029},
      {"sequence": "GATATCAC", "PBM 8-mer E-score": 0.119},
      {"sequence": "CGTTGCAC", "PBM 8-mer E-score": -0.227},
      {"sequence": "CCACTGAC", "PBM 8-mer E-score": -0.15},
      {"sequence": "CCAATTAG", "PBM 8-mer E-score": 0.073},
      {"sequence": "ATGGGACC", "PBM 8-mer E-score": -0.213},
      {"sequence": "CCAGACTA", "PBM 8-mer E-score": -0.0942},
      {"sequence": "TACATGTA", "PBM 8-mer E-score": 0.321},
      {"sequence": "CCCCCCAC", "PBM 8-mer E-score": -0.373},
      {"sequence": "AGTAACAC", "PBM 8-mer E-score": 0.213},
      {"sequence": "CTCGGGAA", "PBM 8-mer E-score": -0.119},
      {"sequence": "CTAGCGCA", "PBM 8-mer E-score": -0.235},
      {"sequence": "GGTGCCTA", "PBM 8-mer E-score": -0.0806},
      {"sequence": "CAATACAA", "PBM 8-mer E-score": 0.199},
      {"sequence": "CACATTTC", "PBM 8-mer E-score": 0.159},
      {"sequence": "CAGAGCTA", "PBM 8-mer E-score": -0.148},
      {"sequence": "AAAAGATT", "PBM 8-mer E-score": 0.237},
      {"sequence": "CGCACAAG", "PBM 8-mer E-score": -0.0906},
      {"sequence": "CGGGTACG", "PBM 8-mer E-score": -0.178},
      {"sequence": "CTTAGCCA", "PBM 8-mer E-score": -0.0815},
      {"sequence": "CTCAGTGC", "PBM 8-mer E-score": -0.0732},
      {"sequence": "CAGGGAGC", "PBM 8-mer E-score": -0.371},
      {"sequence": "CATAACTA", "PBM 8-mer E-score": 0.286},
      {"sequence": "GAGGAGAA", "PBM 8-mer E-score": -0.239},
      {"sequence": "ACATCCAA", "PBM 8-mer E-score": 0.158},
      {"sequence": "GTCCTCCA", "PBM 8-mer E-score": -0.348},
      {"sequence": "GTTTATTA", "PBM 8-mer E-score": 0.407},
      {"sequence": "AACGGACT", "PBM 8-mer E-score": -0.0917},
      {"sequence": "ACGGCACA", "PBM 8-mer E-score": 0.117},
      {"sequence": "CCTAGGAG", "PBM 8-mer E-score": -0.293},
      {"sequence": "ATCGGAAG", "PBM 8-mer E-score": -0.0287},
      {"sequence": "TAATAGTA", "PBM 8-mer E-score": 0.362},
      {"sequence": "GGGCGGAA", "PBM 8-mer E-score": -0.17},
      {"sequence": "GGATGAAC", "PBM 8-mer E-score": 0.0137},
      {"sequence": "CCGATCAA", "PBM 8-mer E-score": -0.0487},
      {"sequence": "ACCAAGCG", "PBM 8-mer E-score": -0.286},
      {"sequence": "CCCTAAAA", "PBM 8-mer E-score": -0.0293},
      {"sequence": "GTCGGCCA", "PBM 8-mer E-score": -0.253},
      {"sequence": "ACAGCCTG", "PBM 8-mer E-score": -0.125},
      {"sequence": "CGGCACAC", "PBM 8-mer E-score": -0.0132},
      {"sequence": "CATGATGG", "PBM 8-mer E-score": -0.125},
      {"sequence": "CATCGGCC", "PBM 8-mer E-score": -0.211},
      {"sequence": "CATATTGC", "PBM 8-mer E-score": 0.194},
      {"sequence": "GAAGCAGC", "PBM 8-mer E-score": -0.303},
      {"sequence": "AGGTAGCC", "PBM 8-mer E-score": -0.172},
      {"sequence": "ATGCAAGC", "PBM 8-mer E-score": -0.0519},
      {"sequence": "ATTGTTGA", "PBM 8-mer E-score": 0.115},
      {"sequence": "AAGTAGTG", "PBM 8-mer E-score": 0.168},
      {"sequence": "ATAACACA", "PBM 8-mer E-score": 0.314},
      {"sequence": "CTGGCAAC", "PBM 8-mer E-score": 0.0118},
      {"sequence": "AGTCAGAA", "PBM 8-mer E-score": 0.0155},
      {"sequence": "TATCTAGA", "PBM 8-mer E-score": 0.17},
      {"sequence": "GGTAGCAA", "PBM 8-mer E-score": -0.0509},
      {"sequence": "AGTTAGAC", "PBM 8-mer E-score": 0.0898},
      {"sequence": "ATAGATCA", "PBM 8-mer E-score": 0.0377},
      {"sequence": "AGAGCTAA", "PBM 8-mer E-score": -0.0847},
      {"sequence": "ACGAAGAG", "PBM 8-mer E-score": -0.0503},
      {"sequence": "ACCCAACA", "PBM 8-mer E-score": -0.0628},
      {"sequence": "CTTGATTC", "PBM 8-mer E-score": -0.0843},
      {"sequence": "CCGGATGC", "PBM 8-mer E-score": -0.203},
      {"sequence": "AAGGAGAA", "PBM 8-mer E-score": -0.165},
      {"sequence": "ATACTCTG", "PBM 8-mer E-score": 0.123},
      {"sequence": "ATAGTTGA", "PBM 8-mer E-score": 0.259},
      {"sequence": "CTTGAGTA", "PBM 8-mer E-score": 0.0587},
      {"sequence": "ACAGAAGG", "PBM 8-mer E-score": -0.153},
      {"sequence": "CTAGTAAG", "PBM 8-mer E-score": -0.181},
      {"sequence": "ATCTAATC", "PBM 8-mer E-score": 0.167},
      {"sequence": "CAGGCAGC", "PBM 8-mer E-score": -0.235},
      {"sequence": "AGATCATC", "PBM 8-mer E-score": -0.117},
      {"sequence": "ACGCTACT", "PBM 8-mer E-score": -0.032},
      {"sequence": "ATTTATAA", "PBM 8-mer E-score": 0.459},
      {"sequence": "GTCGAAGA", "PBM 8-mer E-score": -0.0654},
      {"sequence": "ACGGTCCG", "PBM 8-mer E-score": -0.343},
      {"sequence": "GGGCACAA", "PBM 8-mer E-score": -0.0187}
    ]}
  ]
}
